Measurements taken from the RNAGym collection of RNA variant scans (doi:10.7554/elife.90254).
Read counts are not given, so values of variants with three or more changes are uncertain.

B1: LINE1-mini (parent)
chain: GGCAGAGCUCAACACAGCGUGGCAAAGUGGCUGUGGCUAGACUGCC

Variants of: B1
Experiment: self-cleavage, relative activity (ratio to wild type); higher = more cleavage; in vitro, sequencing; the parent is a self-cleaving ribozyme

| Variant | self-cleavage |
| --- | --- |
| G7A A16U G19C G29U | 0.09 |
| G7A A16U G27U | 0.16 |
| G7A A16U G29A G35U | 0.03 |
| G7A A16U U28A U32G | 0.12 |
| G7A A16U U43G | 0.05 |
| G7A A24C C42G | 0 |
| G7A A24C G29C U34A | 0.1 |
| G7A A24G A26U | 0.16 |
| G7A A24G A39C C42G C45A | 0.02 |
| G7A A24G C37A | 0.16 |
| G7A A24G U28A | 0.17 |
| G7A A24U A26U G44C | 0.21 |
| G7A A25C G33A C42G | 0.15 |
| G7A A25C G35C | 0.02 |
| G7A A25C U28A G29C G33C | 0.57 |
| G7A A25C U28C | 0.04 |
| G7A A25U C31A | 0.07 |
| G7A A25U U34C | 0.02 |
| G7A A26C C31A G33U U34A G36C C42A | 0.15 |
| G7A A26C C31G | 0.02 |
| G7A A26U C37G | 0.01 |
| G7A A26U G30C | 0.14 |
| G7A C8A A14U G17A G22U C45G | 0.45 |
| G7A C8A A26C | 0.21 |

| Variant | self-cleavage |
| --- | --- |
| G7A C8A C18G | 0.39 |
| G7A C8A C31G C37U | 0.36 |
| G7A C8A C31U A39G G44C | 0.03 |
| G7A C8A G17C C42A | 0.59 |
| G7A C8A G17U U28A G30C U32C U43C | 0.08 |
| G7A C8A G21A A39U | 0.13 |
| G7A C8A G29U C31A | 0.1 |
| G7A C8A G40A | 0.41 |
| G7A C8A U9A C18U G21C U28G G35U G44U | 0.06 |
| G7A C8A U32A G35U C42G | 0.87 |
| G7A C8G A14C | 0.12 |
| G7A C8G A25U | 0.1 |
| G7A C8G C10A A14C G22U G35U | 0.04 |
| G7A C8G C10U G22A | 0.02 |
| G7A C8G C13A G27U | 0.11 |
| G7A C8G G17U A24G | 0.02 |
| G7A C8G G17U C31U | 0.02 |
| G7A C8G G19A G35C A39C | 0.05 |
| G7A C8G G22A U32G U43A | 0.01 |
| G7A C8G G30C C42A | 0.02 |
| G7A C8G U9A A16G U20G C37A | 0.05 |
| G7A C8G U20G G29A G35A U38C | 0.15 |
| G7A C8G U28C G36U C37U G40A G44U | 0.02 |
| G7A C8G U28G G29C | 0.02 |

| Variant | self-cleavage |
| --- | --- |
| G7A C8U A11G C45A | 0.04 |
| G7A C8U A12U G27U G36U G44A | 0.31 |
| G7A C8U C10U A14G U28G | 0.02 |
| G7A C8U C13U A14C C37G | 0.88 |
| G7A C8U C18G C23A G27A | 0.84 |
| G7A C8U C18U G29A C37U | 0.16 |
| G7A C8U C31U U38C C42G | 0.36 |
| G7A C8U G19U G40C | 0.07 |
| G7A C8U G33C | 0.36 |
| G7A C10A A11C A16G C18A | 0.01 |
| G7A C10A A11G C15G | 0.02 |
| G7A C10A A12G A14C U20C G22A | 0.01 |
| G7A C10A A14C G27U C42A | 0.02 |
| G7A C10A A26G U28C | 0.5 |
| G7A C10A A26U U28C C45A | 0.01 |
| G7A C10A C15U G33C C45A | 0.12 |
| G7A C10A G29C | 0.02 |
| G7A C10A G30C G36C | 0.03 |
| G7A C10A G30U C45G | 0.09 |
| G7A C10A U20C U28G G29U | 0.01 |
| G7A C10A U38A U43A G44A | 0.02 |
| G7A C10G A11G | 0 |
| G7A C10G A14C C15A G21U C37U | 0.02 |
| G7A C10G A24U C31U G40U C42U | 0.01 |

| Variant | self-cleavage |
| --- | --- |
| G7A C10G A26C G27U U38C | 0.01 |
| G7A C10G G17U G27A G30C | 0.02 |
| G7A C10G G19C C42U | 0 |
| G7A C10G G21U C42G C45G | 0.01 |
| G7A C10G G22A | 0.02 |
| G7A C10G G22U C42U | 0.01 |
| G7A C10G G35C C42G | 0.02 |
| G7A C10G G40A | 0.03 |
| G7A C10G G44U C45U | 0.02 |
| G7A C10G U20G | 0 |
| G7A C10U A11G C15A C23A C42A | 0.01 |
| G7A C10U A16C C37A | 0.01 |
| G7A C10U A26C G29C U34G G44C | 0.02 |
| G7A C10U C15A G17A C37U | 0.05 |
| G7A C10U C23U U28C A39G | 0.03 |
| G7A C10U G19A U28C | 0.04 |
| G7A C10U G21C U28A G44C | 0.02 |
| G7A C10U G29C G44A | 0.02 |
| G7A C10U U34A G35U | 0.03 |
| G7A C13A A26G G27U | 0.22 |
| G7A C13A C15G G17C G29C G36C | 0.06 |
| G7A C13A C18A U32G | 0.04 |
| G7A C13A C23A | 0.34 |
| G7A C13A C23U A25G G29U | 0.04 |

| Variant | self-cleavage |
| --- | --- |
| G7A C13A C31U | 0.12 |
| G7A C13A G17C A25C A26U G40U | 0.04 |
| G7A C13A G22C U32C | 0.03 |
| G7A C13A G27U C31A A39G | 0.7 |
| G7A C13A G29A G35C U43C | 0.13 |
| G7A C13A G30C A39G | 0 |
| G7A C13A U34G | 0.16 |
| G7A C13G A14U G30C | 0.02 |
| G7A C13G G30C C37G A39U | 0.01 |
| G7A C13U A14C C15A U20C | 0.16 |
| G7A C13U A26C | 0.3 |
| G7A C13U C23A C45G | 0.16 |
| G7A C13U G27C | 0.34 |
| G7A C13U G35C | 0.27 |
| G7A C13U G40C | 0.19 |
| G7A C13U U28A | 0.05 |
| G7A C13U U32A G33C | 0.02 |
| G7A C15A A25G C45G | 0.07 |
| G7A C15A A26G U28C | 0.01 |
| G7A C15A C31A G40C U43C | 0.07 |
| G7A C15A G27U | 0.14 |
| G7A C15A G27U G33A | 0.01 |
| G7A C15G G17A | 0.03 |
| G7A C15U C23G G44U | 0.18 |

| Variant | self-cleavage |
| --- | --- |
| G7A C15U G21C G44C | 0.33 |
| G7A C15U G44C | 0.14 |
| G7A C18A C23G U43A | 0.16 |
| G7A C18A G19U C31U G36U | 0.05 |
| G7A C18A G22C U32A U38A | 0.02 |
| G7A C18A G36U | 0.03 |
| G7A C18G C23G C42U | 0.04 |
| G7A C18G C23U G35C | 0.06 |
| G7A C18G G40U | 0.19 |
| G7A C18U A26U G35U | 0.04 |
| G7A C18U C23G U28C C46U | 0.07 |
| G7A C18U G36A C45A | 0.09 |
| G7A C18U U28C | 0.01 |
| G7A C23A A39U U43C C45A | 0.09 |
| G7A C23A G27A U34C C42G | 0.08 |
| G7A C23A G27C | 0.13 |
| G7A C23A G35A | 1.14 |
| G7A C23G A26G C37U G40U G44C C45U | 0.06 |
| G7A C23G G30U G44C | 0.03 |
| G7A C23G G44C | 0.34 |
| G7A C23U C31U G36U | 0.02 |
| G7A C23U G29U | 0.03 |
| G7A C31A C46A | 0.08 |
| G7A C31A U43A C46G | 0.25 |

| Variant | self-cleavage |
| --- | --- |
| G7A C31G A39U | 0.52 |
| G7A C31G C37A | 0.11 |
| G7A C31U A39C | 0.16 |
| G7A C37G G40U | 0.07 |
| G7A C37U A39C | 0.05 |
| G7A C37U U43A | 0.03 |
| G7A C42A C46U | 0.12 |
| G7A C42U G44U | 0.09 |
| G7A G17A C23G | 0.11 |
| G7A G17A C31A | 0.05 |
| G7A G17A C31U | 0.07 |
| G7A G17A C45A | 0.17 |
| G7A G17A G30A C45G C46G | 0.03 |
| G7A G17A U28G G44U | 0.08 |
| G7A G17C C18U G22C | 0.09 |
| G7A G17C G27U | 0.19 |
| G7A G17C U20C | 0.05 |
| G7A G17C U20G G30C | 0.16 |
| G7A G17U C18G C42G | 0.18 |
| G7A G17U C23A A25U G44A | 0.38 |
| G7A G17U C23G A24C G30C | 0.03 |
| G7A G17U G33U | 0.13 |
| G7A G17U G40U | 0.19 |
